# Reference: PubChem BioAssay AID1345082 (National Center for Advancing Translational Sciences (NCATS), 2018)
# In all, about 94,000 compounds went through this assay and about 4,000 (4.3%) were called active. The inconclusive results got no clear call from the source; some entries with a clear call stand among them for comparison. Calls come from the whole dose curve; as a rule, active = well fitted inhibition curve with a large enough effect; inconclusive = small, poorly fitted or top-dose-only effect; inactive = no such curve, though single readings can be large or run the other way. A potency beside an inconclusive call is a rough fit, not a confirmed value.
# Assay: Cytotoxic Profiling in NIH 3T3 Cell Line of Diverse Libraries Using Quantitative High-Throughput Screening; note: nearly all actives have a fitted effect of over 55% in size
# Settings: NIH 3T3 viability, CellTiter-Glo ATP luminescence, 48-72 h; activity change, negative = cytotoxicity: at 96.7 µM (top of the series); series mostly up to 96.7 µM
# Outline: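 Mouse fibroblast NIH 3T3 cells, 400 per well, received compound via pintool and were incubated for 48 or 72 hr prior to CellTiter-Glo ATP luminescence measurement.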
# % is set by controls: 0 for no effect and ±100 for the full control effect; potency is the fitted concentration of half-maximal effect; tags give direction and shape of the fitted curve.
SMILES,Potency,outcome,"activity change, negative = cytotoxicity"
Cc1nn2c(c1-c1ccccc1OCc1ccccc1)N(C(=O)c1ccn(C)n1)CCC2,"inconclusive: 56.2 µM [inhibitor, partial curve, poor fit]",,
COc1cccc(C(=O)N2CCC3(CC2)CC(OC)CCO3)c1 (stereo not given),,inactive,
CC(C)COc1cc(=O)n2c(c1C(=O)NC1CCCCC1)CCCCC2,"inconclusive: 70.8 µM [inhibitor, single point]",,
COc1ccc(-c2noc([C@@H]3CCCN3C(=O)c3ccsc3)n2)cc1OC,,,inactive: -14.5%
CC1CCC(NC(=O)C2CCN(c3cc(C(F)(F)F)ncn3)CC2)CC1 (stereo not given),"inconclusive: 63.1 µM [inhibitor, partial curve, poor fit]",,
Cc1ncsc1C(=O)N1CCNc2cnc(Nc3cccc(F)c3)nc2C1,"inconclusive: 56.2 µM [inhibitor, partial curve, poor fit]",,
Cc1cnc(C)n1C1CCN(S(=O)(=O)c2ccccc2)CC1,"inconclusive: 35.5 µM [inhibitor, partial curve, poor fit]",,
COCCCNC(=O)N1CCCCCCNC(=O)[C@@H]2C[C@@H](c3nc(-c4cccnc4)no3)C[C@@H]21,,,inactive: -3.68%
O=C(Cc1ccc(Br)cc1)NCc1nnc2ccc(-c3ccc(F)cc3)nn12,,,inactive: -8.17%
O=C(NCc1ccccc1F)C1CCN(C(=O)c2ncn3c2COC(c2ccc(F)cc2)C3)CC1 (stereo not given),,,inactive: 3.88%
C=CCCOC(=O)N1C[C@@H](C(=O)OCC)[C@@H]2Oc3cc(OC)ccc3[C@@H]21,"inconclusive: 44.7 µM [inhibitor, partial curve, poor fit]",,
Cc1ccc(C2Cn3nnc(C(=O)N4CCN(C(=O)c5cccc(Cl)c5)CC4)c3CO2)cc1 (stereo not given),"inconclusive: 25.1 µM [inhibitor, partial curve, poor fit]",,
CC(NC(=O)C1CCN(c2nccc(Nc3ccccc3F)n2)CC1)c1ccc(F)cc1 (stereo not given),"inconclusive: 28.2 µM [inhibitor, full curve, poor fit]",,
CC(=O)N1CCC2(CC1)OC(=O)N(Cc1ccccc1F)C2(C)c1ccccc1 (stereo not given),active: 35.5 µM,,
COc1ccc2ccc(OCc3nc(C(=O)N4CCC(NC(C)=O)CC4)co3)cc2c1,"inconclusive: 50.1 µM [inhibitor, partial curve, poor fit]",,
COCCN1CCCC1c1nc(C2CN(C(=O)NCc3ccco3)C2)no1 (stereo not given),,,inactive: -3.2%
N#Cc1nccnc1N1CCN(C2CCC3(CCNCC3)CC2)CC1,"inconclusive: 56.2 µM [inhibitor, partial curve, poor fit]",,
N#Cc1ccc(CN2CCC3(CN[S+](=O)([O-])c4ccccc4N3)C2)cc1 (stereo not given),"inconclusive: 39.8 µM [inhibitor, partial curve, poor fit]",,
O=C(NCc1ccccc1)O[C@H]1COCCN(c2nc3ccccc3s2)C1,"inconclusive: 89.1 µM [inhibitor, partial curve, poor fit]",,
C[S+](=O)([O-])c1ccc(-c2nnc3ccc(C(=O)NCc4ccccc4)cn23)cc1,,,inactive: -24%

SMILES,Potency,outcome,"activity change, negative = cytotoxicity"
CC(=O)N1CCc2nc(C3CC3)nc(-c3ccc(O)cc3)c2CC1,,,inactive: -23.3% [at 138 µM]
Cc1ccc(-c2nccn3cc(C(=O)NCc4nc5ccccc5n4C)nc23)cc1,"inconclusive: 70.8 µM [inhibitor, partial curve, poor fit]",,
O=C(O)CCC(=O)N1Cc2[nH]cnc2C[C@H]1c1nc(-c2ccc(Cl)cc2)no1,,inactive [at 174 µM],
Cc1ccc(-c2cc(O)c3c(c2)CN(C(=O)[C@@H](N)Cc2cnc[nH]2)CCO3)cc1,,,inactive: -0.741%
Cc1ccc(OCc2nc(C3CCN(C(=O)Cn4nc(C)cc4C)CC3)no2)cc1,,,inactive: -25.8%
COc1cccc(-c2ccc(C(=O)NCCN[S+](=O)([O-])c3cccc(C(F)(F)F)c3)cc2)c1,"inconclusive: 31.6 µM [inhibitor, partial curve, poor fit]",,
Cc1ccc(-c2cc(C(=O)NCC(F)F)c3cnn(C)c3n2)c(C)c1,"inconclusive: 44.7 µM [inhibitor, partial curve, poor fit]",,
CN1CCN(CCCNC(=O)c2ccc(N3CC4CC(C3)[C@H]3CCCC(=O)N3C4)nc2)CC1 (stereo not given in full),,inactive,
O=C(c1noc(-c2ccc(F)cc2)n1)N1CCN(c2ccccc2Cl)CC1,"inconclusive: 70.8 µM [inhibitor, single point]",,
COCCNC(=O)c1c(C)oc2c1CN(Cc1cccc(F)c1)CC2,"inconclusive: 31.6 µM [inhibitor, full curve, poor fit]",,
Cc1ccccc1S(=O)(=O)N1CCC(CCC(=O)NCCN2CCOCC2)CC1,,,inactive: -6.47%
COCCCNC(=O)C(NC(=O)c1ccc(C)cc1)C1CCN(C(=O)c2cccs2)CC1 (stereo not given),"inconclusive: 70.8 µM [inhibitor, partial curve, poor fit]",,
Cc1cc(=O)n(CC(=O)NCc2ccccc2Br)c(N(C)Cc2ccccc2)n1,"inconclusive: 50.1 µM [inhibitor, partial curve, poor fit]",,
COc1ccc(-n2nc(C3CCCN(C(=O)Cc4cccc(Cl)c4)C3)[nH]c2=O)cc1 (stereo not given),"inconclusive: 70.8 µM [inhibitor, single point]",,
COc1ccccc1Nc1ncc2c(n1)CN(C(=O)c1ccc(Oc3ccccc3)cc1)CCN2,"inconclusive: 50.1 µM [inhibitor, partial curve, poor fit]",,
NC(=O)c1cccc(-c2ccc3c(n2)CN(Cc2ccc(F)cc2)C(=O)CO3)c1,"inconclusive: 56.2 µM [inhibitor, partial curve, poor fit]",,
O=C1NC2(CCN(Cc3ccc(OC(F)(F)F)cc3)C2)Oc2ccccc21 (stereo not given),"inconclusive: 44.7 µM [inhibitor, partial curve, poor fit]",,
COc1ccc(-c2cc(C[C@H]3CNCC[C@H]3CC(=O)N3CCC(n4c(=O)[nH]c5ccccc54)CC3)no2)cc1,"inconclusive: 89.1 µM [inhibitor, partial curve, poor fit]",,
CC(C)CN1C(=O)c2cccn2CC1C(=O)N1CCOCC1 (stereo not given),,,inactive: 3.54%
O=[S+]1([O-])N(c2ccccc2)C[C@@H](O)[C@]12CCN(Cc1ccc(OC(F)F)cc1)C2,"inconclusive: 11.2 µM [inhibitor, full curve]",,
